The record followed here is a collection of fitness landscapes (doi:10.1016/j.celrep.2020.107928).

First the molecules themselves.
B1: Caulobacter ParB omega fusion; a variant is named by its letters at X, in order, B8GW30 (parent)
chain: MESVVVGEPGMSEGRRGLGRGLSALLGEVDAAPAQAPGEQLGGSREAPIEILQRNPDQPRRTFREEDLEDLSNSIREKGVLQPILVRPSPDTAGEYQIVAGERAWRAAQRAGLKTVPIMVRELDDLAVLEIGIIENVQRADLNVLEEALSYKVLMEKFERTQENIAQTIGKSXSHVANXMRLLXLPDEVQSYLVSGELTAXHARAIAAAADPVALAKQIIEGGLSVRETEALARKAPNLSAGKSKGGRPPRVKDTDTQALESDLSSVLGLDVSIDHRGSTGTLTITYATLEQLDDLCNRLTRGI

Whole data set: some 81,000 sequences, median “one-hybrid fitness for binding parS DNA” near -0.17, cut for the highest 2% near 0.51. This is one part of the list.

This test covers variants of B1. Description: one-hybrid fitness for binding parS DNA (scaled: cognate 1, non-cognate 0); higher = stronger binding. The following applies: with parS DNA site. In a few lines:
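Caulobacter ParB libraries with four specificity codons randomised were screened by bacterial one-hybrid selection in the E. coli USO strain, using a HIS3 reporter whose site lies 19 bp from the promoter. Selection ran for 48 hours at 37°C on M9 lacking histidine, with 0.1 mM IPTG and 5 mM 3-AT. Plasmids were Illumina-sequenced before and after selection, three replicate libraries were pooled, and variants with under 10 reads were dropped. Fitness is the log change in each variant's read ratio to wild type, rescaled against the cognate and non-cognate sites.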
VANS: the “one-hybrid fitness for binding parS DNA” value was at most 0.2.

On to RVAF, for which the “one-hybrid fitness for binding parS DNA” value turned out to be 0.259.

As for RHKK, the “one-hybrid fitness for binding parS DNA” value is at most 0.2.

For the variant HKNP, the “one-hybrid fitness for binding parS DNA” value is at most 0.2.

Consider RNCG, for which the “one-hybrid fitness for binding parS DNA” value was 0.771.

Take ALPE: the “one-hybrid fitness for binding parS DNA” value is at most 0.2.

For SEDR, the “one-hybrid fitness for binding parS DNA” value was at most 0.2.

QSEY: the “one-hybrid fitness for binding parS DNA” value is at most 0.2.

Turning to RTPH, the “one-hybrid fitness for binding parS DNA” value was at most 0.2.

On to TRLL, for which the “one-hybrid fitness for binding parS DNA” value was at most 0.2.

For LKNF, the “one-hybrid fitness for binding parS DNA” value was at most 0.2.

TNYM: the “one-hybrid fitness for binding parS DNA” value is at most 0.2.

With SIVT, the “one-hybrid fitness for binding parS DNA” value was at most 0.2.

As for YVFT, the “one-hybrid fitness for binding parS DNA” value is at most 0.2.

Consider VAER, for which the “one-hybrid fitness for binding parS DNA” value was at most 0.2.

In the case of LVVF, the “one-hybrid fitness for binding parS DNA” value is at most 0.2.

FMAS: the “one-hybrid fitness for binding parS DNA” value is at most 0.2.

As to MAQR, the “one-hybrid fitness for binding parS DNA” value was at most 0.2.

Take VADM: the “one-hybrid fitness for binding parS DNA” value is at most 0.2.

Turning to EKHY, the “one-hybrid fitness for binding parS DNA” value was at most 0.2.

VCPC: the “one-hybrid fitness for binding parS DNA” value is at most 0.2.

With TTFS, the “one-hybrid fitness for binding parS DNA” value was at most 0.2.

On to AVEG, for which the “one-hybrid fitness for binding parS DNA” value is at most 0.2.

For the variant LDQR, the “one-hybrid fitness for binding parS DNA” value was at most 0.2.

On to RDNI, for which the “one-hybrid fitness for binding parS DNA” value is at most 0.2.

In the case of LLDS, the “one-hybrid fitness for binding parS DNA” value was at most 0.2.

ECAT: the “one-hybrid fitness for binding parS DNA” value is at most 0.2.

On to RAHS, for which the “one-hybrid fitness for binding parS DNA” value turned out to be 0.985.

In the case of HFTC, the “one-hybrid fitness for binding parS DNA” value is at most 0.2.

Regarding QVLH, the “one-hybrid fitness for binding parS DNA” value is at most 0.2.

As for DWNG, the “one-hybrid fitness for binding parS DNA” value was at most 0.2.

MPAL: the “one-hybrid fitness for binding parS DNA” value was at most 0.2.

For the variant RFYH, the “one-hybrid fitness for binding parS DNA” value was determined as 0.256.

Turning to YRDC, the “one-hybrid fitness for binding parS DNA” value is at most 0.2.

For the variant PIPP, the “one-hybrid fitness for binding parS DNA” value is at most 0.2.

For the variant RVPR, the “one-hybrid fitness for binding parS DNA” value was at most 0.2.

Consider CQWS, for which the “one-hybrid fitness for binding parS DNA” value is at most 0.2.

ATPE: the “one-hybrid fitness for binding parS DNA” value was at most 0.2.

As to PPAC, the “one-hybrid fitness for binding parS DNA” value is at most 0.2.

On to RHDL, for which the “one-hybrid fitness for binding parS DNA” value was at most 0.2.

In the case of PWFS, the “one-hybrid fitness for binding parS DNA” value is at most 0.2.

For the variant TVAN, the “one-hybrid fitness for binding parS DNA” value was at most 0.2.

DLTY: the “one-hybrid fitness for binding parS DNA” value is at most 0.2.

Consider TARQ, for which the “one-hybrid fitness for binding parS DNA” value was at most 0.2.

With QGFR, the “one-hybrid fitness for binding parS DNA” value was at most 0.2.

Consider VDGC, for which the “one-hybrid fitness for binding parS DNA” value was at most 0.2.

In the case of TGTY, the “one-hybrid fitness for binding parS DNA” value is at most 0.2.

As for NPRM, the “one-hybrid fitness for binding parS DNA” value was at most 0.2.

On to TSDC, for which the “one-hybrid fitness for binding parS DNA” value was at most 0.2.

Consider SPSR, for which the “one-hybrid fitness for binding parS DNA” value was at most 0.2.

For ESDV, the “one-hybrid fitness for binding parS DNA” value was at most 0.2.

In the case of FVPV, the “one-hybrid fitness for binding parS DNA” value is at most 0.2.

ARMK: the “one-hybrid fitness for binding parS DNA” value was at most 0.2.

With SVDG, the “one-hybrid fitness for binding parS DNA” value is at most 0.2.

Regarding FSHL, the “one-hybrid fitness for binding parS DNA” value is at most 0.2.

Take TKNC: the “one-hybrid fitness for binding parS DNA” value was at most 0.2.

As to EMLY, the “one-hybrid fitness for binding parS DNA” value was at most 0.2.

As for HTAF, the “one-hybrid fitness for binding parS DNA” value was at most 0.2.

WVLS: the “one-hybrid fitness for binding parS DNA” value was at most 0.2.

On to LLLH, for which the “one-hybrid fitness for binding parS DNA” value is at most 0.2.

In the case of QTTL, the “one-hybrid fitness for binding parS DNA” value was at most 0.2.

As for MCNF, the “one-hybrid fitness for binding parS DNA” value was at most 0.2.

Turning to NAMN, the “one-hybrid fitness for binding parS DNA” value was at most 0.2.

Turning to RFTH, the “one-hybrid fitness for binding parS DNA” value is at most 0.2.

Regarding SKTD, the “one-hybrid fitness for binding parS DNA” value was at most 0.2.

With DRRG, the “one-hybrid fitness for binding parS DNA” value was at most 0.2.

For the variant ITSI, the “one-hybrid fitness for binding parS DNA” value is at most 0.2.

NESN: the “one-hybrid fitness for binding parS DNA” value was at most 0.2.

In the case of SQTR, the “one-hybrid fitness for binding parS DNA” value is at most 0.2.

As for AIHR, the “one-hybrid fitness for binding parS DNA” value is at most 0.2.

As for EWYV, the “one-hybrid fitness for binding parS DNA” value was at most 0.2.

Consider SYPR, for which the “one-hybrid fitness for binding parS DNA” value was at most 0.2.

For YPRS, the “one-hybrid fitness for binding parS DNA” value is at most 0.2.

On to AHVS, for which the “one-hybrid fitness for binding parS DNA” value was at most 0.2.

On to PPSQ, for which the “one-hybrid fitness for binding parS DNA” value was at most 0.2.

As for GPNR, the “one-hybrid fitness for binding parS DNA” value is at most 0.2.

In the case of TPDP, the “one-hybrid fitness for binding parS DNA” value was at most 0.2.

Consider RFMY, for which the “one-hybrid fitness for binding parS DNA” value stood at 0.454.

As for NLFY, the “one-hybrid fitness for binding parS DNA” value is at most 0.2.

Take PSLP: the “one-hybrid fitness for binding parS DNA” value is at most 0.2.

As for NCMW, the “one-hybrid fitness for binding parS DNA” value is at most 0.2.

For the variant TNQC, the “one-hybrid fitness for binding parS DNA” value is at most 0.2.

YFER: the “one-hybrid fitness for binding parS DNA” value is at most 0.2.

Turning to KVDW, the “one-hybrid fitness for binding parS DNA” value was at most 0.2.

As to ATGY, the “one-hybrid fitness for binding parS DNA” value was at most 0.2.

Consider TERN, for which the “one-hybrid fitness for binding parS DNA” value is at most 0.2.

In the case of KYET, the “one-hybrid fitness for binding parS DNA” value was at most 0.2.

As to LRTR, the “one-hybrid fitness for binding parS DNA” value is at most 0.2.

PEMY: the “one-hybrid fitness for binding parS DNA” value is at most 0.2.

In the case of DGHG, the “one-hybrid fitness for binding parS DNA” value is at most 0.2.

As for FGLG, the “one-hybrid fitness for binding parS DNA” value was at most 0.2.

With QEPT, the “one-hybrid fitness for binding parS DNA” value was at most 0.2.

With GCQS, the “one-hybrid fitness for binding parS DNA” value is at most 0.2.

With TIFC, the “one-hybrid fitness for binding parS DNA” value is at most 0.2.

For IASM, the “one-hybrid fitness for binding parS DNA” value is at most 0.2.

For the variant TACE, the “one-hybrid fitness for binding parS DNA” value is at most 0.2.

Take LAMD: the “one-hybrid fitness for binding parS DNA” value is at most 0.2.

LWRC: the “one-hybrid fitness for binding parS DNA” value was at most 0.2.

RMVI: the “one-hybrid fitness for binding parS DNA” value is at most 0.2.

On to PMTT, for which the “one-hybrid fitness for binding parS DNA” value is at most 0.2.

As for GIIN, the “one-hybrid fitness for binding parS DNA” value is at most 0.2.

Regarding REVV, the “one-hybrid fitness for binding parS DNA” value was at most 0.2.

Consider YNSM, for which the “one-hybrid fitness for binding parS DNA” value was at most 0.2.

On to RSWY, for which the “one-hybrid fitness for binding parS DNA” value came to 0.422.

NEPI: the “one-hybrid fitness for binding parS DNA” value is at most 0.2.

Consider PLET, for which the “one-hybrid fitness for binding parS DNA” value is at most 0.2.

On to RYII, for which the “one-hybrid fitness for binding parS DNA” value is at most 0.2.

With PENS, the “one-hybrid fitness for binding parS DNA” value is at most 0.2.

For the variant CNKS, the “one-hybrid fitness for binding parS DNA” value is at most 0.2.

As for SVQA, the “one-hybrid fitness for binding parS DNA” value is at most 0.2.

In the case of DPNV, the “one-hybrid fitness for binding parS DNA” value is at most 0.2.

For IIMV, the “one-hybrid fitness for binding parS DNA” value was at most 0.2.

On to SKCE, for which the “one-hybrid fitness for binding parS DNA” value is at most 0.2.

In the case of LDIG, the “one-hybrid fitness for binding parS DNA” value is at most 0.2.

In the case of KGPQ, the “one-hybrid fitness for binding parS DNA” value is at most 0.2.

With QKRN, the “one-hybrid fitness for binding parS DNA” value was at most 0.2.

For LLCA, the “one-hybrid fitness for binding parS DNA” value was at most 0.2.

PWHG: the “one-hybrid fitness for binding parS DNA” value was at most 0.2.

As to AVHS, the “one-hybrid fitness for binding parS DNA” value is at most 0.2.

Regarding DLMV, the “one-hybrid fitness for binding parS DNA” value is at most 0.2.

Regarding NRPM, the “one-hybrid fitness for binding parS DNA” value is at most 0.2.

Regarding NEQC, the “one-hybrid fitness for binding parS DNA” value is at most 0.2.

On to CRCS, for which the “one-hybrid fitness for binding parS DNA” value was at most 0.2.

DMAG: the “one-hybrid fitness for binding parS DNA” value was at most 0.2.

With GCPG, the “one-hybrid fitness for binding parS DNA” value was at most 0.2.

For the variant AKHI, the “one-hybrid fitness for binding parS DNA” value is at most 0.2.

For SQPM, the “one-hybrid fitness for binding parS DNA” value was at most 0.2.

TYAW: the “one-hybrid fitness for binding parS DNA” value is at most 0.2.

In the case of LADD, the “one-hybrid fitness for binding parS DNA” value is at most 0.2.

For RVIL, the “one-hybrid fitness for binding parS DNA” value was at most 0.2.

As for RFSK, the “one-hybrid fitness for binding parS DNA” value is at most 0.2.

Consider APCA, for which the “one-hybrid fitness for binding parS DNA” value was at most 0.2.

For ERQL, the “one-hybrid fitness for binding parS DNA” value is at most 0.2.

Consider LYHP, for which the “one-hybrid fitness for binding parS DNA” value was at most 0.2.

In the case of IMCV, the “one-hybrid fitness for binding parS DNA” value was at most 0.2.

On to AEAD, for which the “one-hybrid fitness for binding parS DNA” value is at most 0.2.

In the case of GCIT, the “one-hybrid fitness for binding parS DNA” value was at most 0.2.

As to AGPN, the “one-hybrid fitness for binding parS DNA” value is at most 0.2.

For DTCS, the “one-hybrid fitness for binding parS DNA” value is at most 0.2.

LMCC: the “one-hybrid fitness for binding parS DNA” value is at most 0.2.

FMGR: the “one-hybrid fitness for binding parS DNA” value was at most 0.2.

In the case of HGWT, the “one-hybrid fitness for binding parS DNA” value is at most 0.2.

On to SICD, for which the “one-hybrid fitness for binding parS DNA” value is at most 0.2.

With RSMQ, the “one-hybrid fitness for binding parS DNA” value is at most 0.2.

For the variant IPNR, the “one-hybrid fitness for binding parS DNA” value is at most 0.2.

For the variant EKRL, the “one-hybrid fitness for binding parS DNA” value was at most 0.2.

Turning to NEKS, the “one-hybrid fitness for binding parS DNA” value was at most 0.2.

Take QTKW: the “one-hybrid fitness for binding parS DNA” value was at most 0.2.

With QAIM, the “one-hybrid fitness for binding parS DNA” value is at most 0.2.

As to FMLV, the “one-hybrid fitness for binding parS DNA” value was at most 0.2.

With RPTW, the “one-hybrid fitness for binding parS DNA” value was at most 0.2.

In the case of FTDG, the “one-hybrid fitness for binding parS DNA” value was at most 0.2.

With LCAR, the “one-hybrid fitness for binding parS DNA” value is at most 0.2.
